Several values for one entry are separate records, joined by “and”; a condition that tells them apart may be missing. Equal entries are not always repeated. The whole screen tested about 16,000 compounds, of which about 40 (0.2%) were called active. Another 1% or so got no clear call; they are omitted. Calls come from the whole dose curve; as a rule, active = well fitted activation curve with a large enough effect; inconclusive = small, poorly fitted or top-dose-only effect, or another doubt; inactive = no such curve, though single readings can be large or run the other way. This is one part of the list.
The compounds below were run against Rap guanine nucleotide exchange factor 4 (Homo sapiens) (UniProt Q8WZA2) (assay: Validation qHTS for agonist of cAMP-regulated guanine nucleotide exchange factor 4 (EPAC2)). Conditions: EPAC2 Rap1B BODIPY-GDP exchange, fluorescence; activation: hits give high values.
Procedure, shortened: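 Fluorescent exchange assay: 100 nM EPAC2 with 250 nM RAP1B-BODIPY-GDP and 50 uM GDP; compound added, 5 min at room temperature, then read (ex 480/em 540 nm) every 5 min for 30 min. Normalized to 6.5 mM cAMP agonist control.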
% is set by controls: 0 for no effect and ±100 for the full control effect.
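Note: exchange makes BODIPY-GDP fluorescence drop when released from Rap1B; series mostly up to about 150 µM.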

Sequence of UniProt Q8WZA2 (Q8WZA2 whole entry, looked up): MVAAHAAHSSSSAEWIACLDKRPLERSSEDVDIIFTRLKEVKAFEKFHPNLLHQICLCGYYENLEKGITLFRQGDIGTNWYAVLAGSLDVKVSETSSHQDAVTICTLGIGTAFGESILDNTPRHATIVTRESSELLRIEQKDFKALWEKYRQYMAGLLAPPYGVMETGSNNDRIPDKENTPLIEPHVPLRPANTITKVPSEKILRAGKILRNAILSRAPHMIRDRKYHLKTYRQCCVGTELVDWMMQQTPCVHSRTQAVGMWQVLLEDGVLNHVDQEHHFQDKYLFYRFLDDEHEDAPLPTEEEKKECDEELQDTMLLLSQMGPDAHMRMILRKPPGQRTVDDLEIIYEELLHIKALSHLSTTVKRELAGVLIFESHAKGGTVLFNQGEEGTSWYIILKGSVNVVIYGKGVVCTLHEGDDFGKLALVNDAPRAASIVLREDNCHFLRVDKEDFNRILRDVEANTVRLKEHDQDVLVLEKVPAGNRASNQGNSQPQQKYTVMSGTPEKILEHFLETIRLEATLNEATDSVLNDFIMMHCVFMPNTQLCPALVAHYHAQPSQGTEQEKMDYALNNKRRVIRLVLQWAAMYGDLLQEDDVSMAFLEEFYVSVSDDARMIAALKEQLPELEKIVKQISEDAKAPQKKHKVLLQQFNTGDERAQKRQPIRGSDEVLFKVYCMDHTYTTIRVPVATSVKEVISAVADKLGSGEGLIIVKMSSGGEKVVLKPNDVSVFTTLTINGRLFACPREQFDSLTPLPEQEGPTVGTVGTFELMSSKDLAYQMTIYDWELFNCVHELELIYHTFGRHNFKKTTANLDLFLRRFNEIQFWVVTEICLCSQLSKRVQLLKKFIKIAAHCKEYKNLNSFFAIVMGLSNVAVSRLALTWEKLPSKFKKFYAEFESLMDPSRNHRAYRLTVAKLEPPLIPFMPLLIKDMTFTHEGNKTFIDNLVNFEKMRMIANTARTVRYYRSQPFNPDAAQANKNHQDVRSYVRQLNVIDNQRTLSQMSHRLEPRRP

activation, inactive:
Clc1cccc(C(c2ccc3nc[nH]c3c2)n2ccnc2)c1 (configuration not stated) -3.04%
COC(=O)c1c(OCc2ccccn2)cc(=O)n2c1CCN(Cc1cccc(C(F)(F)F)c1)CC2 -12.3%
Cc1nc2[nH]c(=O)[nH]c(=O)c2[nH]1 -3.92%
CC1=C[C@H](O)CC(C)(C)[C@H]1/C=C/C(C)=C/C=C/C(C)=C/C=C/C=C(C)/C=C/C=C(C)/C=C/C1=C(C)C[C@@H](O)CC1(C)C -26.6%
CC(=O)O[C@]1(C(C)=O)CC[C@H]2[C@@H]3C[C@H](C)C4=CC(=O)CC[C@]4(C)[C@H]3CC[C@@]21C -2.94%
O=C(O)c1cc(-c2ccccc2)nc2ccccc12 -17.4% and -9.23%
N[C@@H](Cc1ccccc1)C(=O)O -14.1%
CC1CN(CC(=O)NCC2(N3CCOCC3)CCCC2)Cc2cc(Cl)ccc2O1 (configuration not stated) -5.16%
CC(=O)OCC(=O)[C@]1(O)C(OC(C)=O)CC2C3CCC4=CC(=O)C=C[C@@]4(C)[C@]3(F)C(O)C[C@]21C (some centres not stated) 6.22%
O=C(NCC1(N2CCOCC2)CCCC1)c1cnn(-c2ncc3c(n2)-c2ccccc2CC3)c1C1CC1 6.05%
C[C@@H]1CN(Cc2ccc3c(c2)CN(Cc2cccc4c2OCO4)CCO3)C[C@H](C)O1 -2.91%
c1ccc2cnccc2c1 -15.7%
CCC1CN(CCNC(=O)c2ccsc2)Cc2cc(OC)ccc2O1 (configuration not stated) -0.471%
CC(=O)Oc1ccc2c(c1)CCC1C2CC[C@]2(C)C(=O)CCC12 (some centres not stated) -15.9%
Nc1nc2n[nH]nc2c(=O)[nH]1 -12.7%
O=c1c(-c2cccc(F)c2)nc2cncnc2n1Cc1ccccc1Cl -3.88%
COc1ccc(CNc2nc(-c3ccoc3)nc3ccccc23)c(OC)c1 -8.02%
Cc1ncc2c(c1CNS(=O)(=O)N(C)C)CCN(C(=O)/C=C/c1ccccc1)C2 -10.5%
CS(=O)(=O)Nc1cccc(-c2ccc3ncnc(NCc4cccs4)c3c2)c1 -10.9%
COc1ccc2c(c1)[C@@]1(C)CCC[C@](C)(CO)C1CC2 (some centres not stated) -3.66%
Cc1nc2cnc(N3CCNCC3)nc2n(-c2ccccc2)c1=O -2.15%
O=P(O)(O)OC[C@H](O)CO -1.41%
CN(C)c1nc(N(C)C)nc(N(C)C)n1 -3.41% and 3.56% and 1.66%
COc1ccccc1-c1cncnc1NCc1cccs1 -4.28%
CC(C)[C@H](O)CC[C@@H](C)C1CC[C@H]2C3CC=C4C[C@@H](O)CC[C@]4(C)C3CC[C@]12C (some centres not stated) 6.71% and 2.83%
Cc1ccc(O)cc1 -8.71% and -8.05% and -0.405%
Cc1ccc(-c2ccnc(-n3ncc(C(=O)N(C)CC4CCCN(C)C4)c3C)n2)o1 (configuration not stated) -14%
c1cnc2[nH]ccc2c1 -27.2%
CC(C)(C)CC(C)(C)c1ccc(OCCO)cc1 -32%
CC(=O)OCC(=O)[C@@]1(O)CCC2C3CCC4=CC(=O)CC[C@]4(C)C3C(=O)C[C@]21C (some centres not stated) 6.23%
CCC1(C2CCN(C(=O)c3ccc(C)c(C)c3)CC2)NC(=O)N(CCc2scnc2C)C1=O (configuration not stated) -15.6%
COc1ccc2ccccc2c1CN1CCC2(CCC(CNC(=O)c3ccccc3)O2)CC1 (configuration not stated) -13.6%
COc1cccc(CN2CCCC(c3nc(-c4ccncc4)ncc3-c3ccccc3)C2)c1O (configuration not stated) -18.3%
O=S1(=O)CCOC[C@H](CC2CCCCC2)N1Cc1ccccc1 -19.2%
NC(=O)C(c1ccccc1)(c1ccccc1)[C@@H]1CCN(CCc2ccc3c(c2)CCO3)C1 -10.7%
Cc1ccc2nc(SCC(=O)N3CCOc4ccc(CN5C[C@@H](C)O[C@@H](C)C5)cc4C3)[nH]c2c1 -32.5%
NC1(C(=O)O)C[C@H](C(=O)O)[C@H](C(=O)O)C1 (some centres not stated) -14.2% and -5.59% and -21.8%
Clc1ccc(/C=C/c2ccc3ccccc3n2)cc1Cl -23%
CCCNCC(O)COc1ccccc1C(=O)CCc1ccccc1 (configuration not stated) -4.83% [middle of 4 runs]
CCNC(=O)c1sc2ncnc(NCCCN3CCOCC3)c2c1C -3.8%
Cc1cc(C(=O)NCc2nc(-c3ccccc3NC(=O)C3CCCO3)oc2C)nc(C)n1 (configuration not stated) -11.1%
O=C(O)[C@@H](O)[C@H](O)[C@H](O)[C@@H](O)C(=O)O (tested in a mixture with another compound) 6.14%
COc1cc([C@@H]2c3cc4c(cc3[C@@H](O[C@@H]3O[C@@H]5CO[C@@H](C)O[C@H]5[C@H](O)[C@H]3O)[C@H]3COC(=O)[C@H]23)OCO4)cc(OC)c1O 12.4%
COc1ccc2[nH]c(CCc3nc4c(OC)c(OC)ccc4[nH]3)nc2c1OC -12.9%
COc1ncc2nc(-c3ccc(F)cc3)c(=O)n(Cc3cccs3)c2n1 -6.06%
N#Cc1ccc(CN2CC3(CCN(C(=O)c4ccncc4)CC3)C2)cc1 4.23%
O=C([C@@H]1CC=C[C@@H]2CCN(C3CC3)C(=O)[C@@H]21)N1CCN(c2ccccc2)CC1 -5.35%
C[C@@H]1[C@H](c2ccccc2)OCCS(=O)(=O)N1Cc1cccc(Cl)c1 -19.8%
O=C(Nc1ccccc1)Nc1ccccc1 -4.47%
O=C(Nc1ccccc1)N1CC[C@@]2(CCCN(C(=O)c3csnn3)C2)C1 -17.9%
Cc1cnc(SCC2CCCO2)nc1C1CCCN(C(=O)C2=NNC(=O)CC2)C1 (configuration not stated) -5.49%
O=C(Nc1cccc2c(=O)cc(-c3nn[nH]n3)oc12)c1ccc(OCCCCc2ccccc2)cc1 -22.5%
